Source: the supplement of paper PMC3694890
± gives the uncertainty stated by the source. The list shows a part of the results. A small y stands for phosphotyrosine.

Target: GRB2 (endogenous complexes from cell lysate), P62993
Assay: GRB2 complex binding differential signal (pY peptide minus Ala control peptide) (fluorescence intensity units); higher = stronger GRB2 complex binding
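Note: phosphopeptide probes on the chip at 1–4 µM, lysate proteins bound in 20 mM Tris pH 7.0 buffer with 140 mM NaCl, 1% Triton X-100 and 5% glycerol.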

Binder	GRB2 complex binding differential signal (MCF7)	GRB2 complex binding differential signal (MCF10A)	GRB2 complex binding differential signal (MDA-MB-231)	GRB2 complex binding differential signal (T47D)
yVEVED [SH22A_305/A1]	253 ± 770	447 ± 310	699 ± 360	251 ± 980
yTAASP [SH22A_39/A1]	3710 ± 1300	3150 ± 640	1390 ± 1300	2840 ± 1000
yCELVP [SH2D3A_231/A1]	-1480 ± 3900	155 ± 190	595 ± 390	86.7 ± 910
yMTGRR [SH2D3A_95/A1]	897 ± 280	350 ± 190	72.3 ± 230	
yVKFSK [SH2D3C_183/A1]	101 ± 160	197 ± 160	637 ± 390	1090 ± 760
yCQLQP [SH2D3C_495/A1]	533 ± 500	633 ± 210	554 ± 390	388 ± 1100
yHTNAE [SH2D3C_793/A1]	1310 ± 500	1430 ± 540	1040 ± 340	1070 ± 1100
yYNDFP [SHC1_349/A1]	4260 ± 640	3160 ± 490	3010 ± 520	13500 ± 3100
yDVPPA [BCAR1_327/A1]	2390 ± 640	1800 ± 760	1510 ± 500	1140 ± 1100
yNDFPG [SHC1_350/A1]	-1370 ± 510	-57.7 ± 690	409 ± 350	828 ± 1100
yVNVQN [SHC1_427/A1]	43000 ± 9200	25500 ± 4600	31500 ± 5900	39100 ± 7200
yYNSIP [SHC2_338/A1]	12100 ± 3300	4930 ± 800	2100 ± 360	8620 ± 1600
yNSIPG [SHC2_339/A1]	684 ± 1000	3070 ± 480	523 ± 560	-23 ± 1200
yVNTQG [SHC2_414/A1]	36000 ± 8000	26000 ± 5600	10400 ± 1100	9040 ± 9400
yENCLE [SHC4_424/A1]	12500 ± 5100	14000 ± 2200	8550 ± 1300	10100 ± 3400
yGSLSS [SHIP1_1022/A1]	586 ± 290	3.41 ± 320	797 ± 280	1250 ± 1000
yDFVKT [SHIP1_865/A1]	830 ± 280	256 ± 310	507 ± 430	1130 ± 1100

Binder	GRB2 complex binding differential signal (MCF7)	GRB2 complex binding differential signal (MCF10A)	GRB2 complex binding differential signal (MDA-MB-231)	GRB2 complex binding differential signal (T47D)
yMGVGP [SHIP1_915/A1]	1970 ± 610	1400 ± 620	776 ± 340	905 ± 1100
yDQPPK [SHIP1_944/A1]	3290 ± 560	2150 ± 300	1230 ± 580	1100 ± 1800
yDVPPP [BCAR1_362/A1]	1960 ± 690	1140 ± 260	1510 ± 550	987 ± 1100
yAPAGP [SHIP2_1135/A1]	3340 ± 1100	3640 ± 1600	1350 ± 370	1580 ± 910
yGRPLS [SHIP2_1162/A1]	5390 ± 590	1880 ± 750	839 ± 280	2740 ± 1300
yAWHKQ [SHIP2_671/A1]	-67.5 ± 230	148 ± 230	67.9 ± 540	-215 ± 1200
yEWISI [SHIP2_886/A1]	199 ± 300	23.1 ± 160	213 ± 390	737 ± 1000
yYVLEG [SHIP2_986/A1]	163 ± 400	52.2 ± 410	458 ± 380	423 ± 1100
yVLEGV [SHIP2_987/A1]	90 ± 560	245 ± 210	1190 ± 290	1940 ± 1200
yEKVTQ [SOCS3_204/A1]	776 ± 630	2130 ± 410	2350 ± 1800	1760 ± 1500
yDAPLG [SOCS3_221/A1]	2260 ± 420	1430 ± 310	1860 ± 420	1870 ± 1100
yPDYKY [SOX4_123/A1]	677 ± 420	120 ± 200	113 ± 250	736 ± 1700
yKYRPR [SOX4_126/A1]	1850 ± 340	952 ± 180	183 ± 230	238 ± 1800
yDVPPG [BCAR1_372/A1]	896 ± 350	1250 ± 590	587 ± 680	807 ± 1100
yCLSVS [SRC_187/A1]	99.1 ± 170	45 ± 350	620 ± 320	319 ± 980
yITSRT [SRC_216/A1]	9470 ± 3200	4700 ± 500	1420 ± 330	3770 ± 1200
